# Assay results as given in the supplement of paper PMC3334620.
# The full ranking holds about 33,000 sequences; the median of “E-score (-0.5 to 0.5)” is about -0.01, and the highest 2% start at about 0.26. The list shows a part of the results.
# Target: Ste12 (UniProt P13574)
# Experiment: PBM E-score (8-mer binding enrichment) (E-score (-0.5 to 0.5)); higher = stronger / more preferred TF binding; most listed sequences are background and not binding sites
# Conditions: protein concentration: 200 nM; construct: GST-DNA-binding domain
# Summary of the method: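 PURExpress in vitro transcription/translation supplied GST-tagged yeast transcription factors, either full-length or DNA-binding domain. Applied at about 100-200 nM to universal all-10-mer Agilent arrays double-stranded by primer extension, the bound protein was detected with fluorescent anti-GST. E-scores, modified Wilcoxon-Mann-Whitney statistics, were given by the Universal PBM Analysis Suite to ungapped eight-base words pooled with their reverse complements after masliner normalisation.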
row,Sequence,PBM E-score
1,ACGACAAC,-0.0246
2,ATGTGAAC,-0.0405
3,AGCGCTTA,-0.00253
4,ACTGCCCG,0.0357
5,CTCAAACA,0.341
6,TAGGCCCA,-0.124
7,AAAGTAGG,0.115
8,AGAGGCTG,-0.0601
9,GTTGACTA,-2e-05
10,ACATGTAA,0.21
11,GCCTTGGA,-0.0633
12,AACTCTCT,0.0217
13,ACGTCCCT,-0.151
14,ACGATAAA,0.0718
15,ATATCTGC,-0.214
16,CTCTAGAC,-0.0352
17,ACATACTA,0.0324
18,ATGAAAAG,-0.0787
19,AGCCGCAT,-0.0773
20,CTAAAGAA,-0.089
21,ACCGCGGG,0.234
22,AACGCTTC,0.175
23,AACCACCA,0.14
24,ACCACAGA,-0.0877
25,AAATCGTC,-0.00682

row,Sequence,PBM E-score
1,AGAGCCAG,-0.227
2,CATCTCGG,-0.0831
3,ATATGACG,0.0643
4,ACTGCTTA,-0.0206
5,CACCATTA,0.091
6,CGCTAATA,-0.0552
7,GTTAAACA,0.0213
8,CTGCCTCA,-0.0649
9,GATTAGCA,-0.0832
10,TCGCAACA,0.104
11,ATTGACCA,0.0873
12,AAGTGGCA,-0.15
13,GATGCCCC,-0.127
14,AGCCCCGC,0.00907
15,CTGGGGCC,-0.2
16,AAACAAGT,0.149
17,GCAATGGA,-0.0457
18,ACTACCGG,-0.16
19,AACAGGTG,-0.0353
20,CCAAATCG,-0.126
21,GGGGTACA,-0.236
22,ACAATACC,0.257
23,CCTCAGAC,0.107
24,GCAATTCC,-0.035
25,ACCACATC,0.0724

row,Sequence,PBM E-score
1,ATGTTGAG,0.112
2,AACTTTGG,-0.0675
3,ACCACGTC,-0.148
4,CTCTCGTA,-0.125
5,AGCAGTAC,-0.0135
6,GGGGAACC,-0.208
7,TGGTCACA,-0.0244
8,CTGACCAA,0.164
9,AGCAACCT,0.0714
10,GCACCCCC,-0.235
11,ACCGTGAT,0.0763
12,ACCGGGTG,-0.0697
13,ACCTGACG,-0.0165
14,GTCTTCAA,0.0115
15,ATACATCA,0.138
16,ACTAGCGA,-0.123
17,AAACGGCA,0.145
18,CCGCGGAG,0.113
19,CAGACATA,0.0544
20,CCTTCAGC,-0.154
21,CTAGAATA,0.171
22,ATACTCGC,0.117
23,GACACTAC,0.00286
24,CGCGTAGC,-0.0904
25,CCCTACGG,-0.177

row,Sequence,PBM E-score
1,GATCACGA,0.0145
2,AATTCGCA,0.0781
3,CGAGCTCG,-0.00333
4,GGCGTAGA,-0.00577
5,CTAACACC,0.044
6,CAGAGGTA,0.0373
7,GGATCCAC,-0.0972
8,GATGCCGC,-0.0688
9,GGGCTCAA,-0.085
10,ATTCGTAC,0.0881
11,AAGAGATA,-0.0137
12,TACAATCA,0.0199
13,AAATGTAG,0.0598
14,ACAGCTCC,0.0816
15,GATGTTCC,0.0244
16,GCGCTGGA,0.0382
17,TATTGCCA,0.113
18,CGAAGTCA,-0.0644
19,ATTCGCTC,0.109
20,AAGATGGA,0.0973
21,GCTGCCCA,-0.123
22,AGCGTTGG,-0.0331
23,GCTAATCA,0.0329
24,GAGCACTA,-0.294
25,ATCGCAAA,0.0711

row,Sequence,PBM E-score
1,AGTCTAGA,-0.075
2,TCCAAGGA,-0.0452
3,GATCAGGC,-0.221
4,ATTGAGTG,0.13
5,ACGTCAAC,-0.0173
6,TACTCCAA,0.0744
7,AACGAAGG,-0.264
8,TCTTCGCA,0.0115
9,CTTCAGTC,-0.119
10,CCATTTGA,-0.114
11,CGTGCTAA,-0.0629
12,AATCTTGT,0.135
13,GTCGCAGA,0.055
14,ACCCTCCC,0.378
15,GATCGACA,-0.0651
16,ATACGGGC,-0.122
17,CAGTCTGG,-0.0676
18,ATTCTATG,0.21
19,AGGATATG,-0.0599
20,ATACCGAA,0.0977
21,TGAACAAA,0.212
22,ACGAGCCC,-0.0742
23,GCAGAATA,0.136
24,CAACTCAC,-0.133
25,GCTAGTTA,-0.0188

row,Sequence,PBM E-score
1,CCTTCAAG,-0.066
2,AGCACGAT,0.0674
3,AAGGGTAG,-0.0808
4,CATCCAAG,-0.0904
5,CCCCTGAA,0.0279
6,ATGTATGG,0.0672
7,AGACCCCC,-0.134
8,ATCTATTA,0.176
9,AGCGCGGA,0.14
10,CTTTGCCC,-0.134
11,ACGCACTA,-0.153
12,GAGGTATA,0.122
13,TATATGAA,0.17
14,ACTGTTGA,0.186
15,AGTATCTG,-0.204
16,ACGATGCA,-0.0403
17,ATAGTAGA,0.0533
18,AGATTCCA,0.106
19,AGTACTAA,0.0974
20,AAGTTCCT,-0.202
21,AAGACACG,-0.0605
22,AGTCCGTC,-0.104
23,CGTGGTTA,0.0817
24,CCGCCTTA,0.0555
25,ACAATGCA,0.0812

row,Sequence,PBM E-score
1,CAGGTTGG,0.0789
2,CCGCACGG,-0.0176
3,CGAAAGCC,-0.119
4,ATGTTCAA,-0.077
5,GGATTAAA,0.274
6,GCGGTTGA,-0.0531
7,ATTTAGTA,0.197
8,GGCCAGAC,-0.0903
9,ATCGACGC,-0.0385
10,GCGATACC,0.0176
11,AGAACTGA,0.0891
12,CCTTAGCA,0.118
13,TCTGGCCA,-0.0752
14,ATGGGGCG,0.201
15,AATTCCAC,0.169
16,ACACTCCT,-0.0346
17,AATGATAA,0.263
18,TATACGAA,0.223
19,GGCCAACC,-0.136
20,AGGCGGCC,-0.0597
21,AGGTCGAC,-0.0704
22,ACTTGCAC,0.0286
23,AGACCACC,-0.0783
24,GGACCCCC,-0.214
25,GAGCGCGC,0.0527

row,Sequence,PBM E-score
1,AAGTTCAT,0.124
2,CACGTTGC,-0.108
3,AGGGAGTA,0.00328
4,ACTGGCAA,0.0278
5,ACCGTAAA,0.164
6,AAATGTGG,0.0717
7,GCGCAAAA,0.061
8,AAACGTAT,0.228
9,CGAGCACC,-0.0862
10,ACGACGAT,0.0455
11,CAGGATTA,0.0467
12,GTATCAAC,0.122
13,ATCAAGGG,-0.0528
14,AAATATGG,0.0851
15,CTTGGGCC,-0.153
16,AACTAAAG,0.0936
17,AGGGAACA,-0.0746
18,ACTGAGAT,-0.183
19,CTTGTCGC,0.126
20,TATCGAAA,0.258
21,TACGCATA,-0.166
22,TCAATTGA,0.158
23,CCAGCGCG,0.129
24,CATCGGTC,-0.00693
25,GCAAGAAC,-0.11

row,Sequence,PBM E-score
1,GCGATCCC,-0.0672
2,GCGCCCGC,-0.107
3,CCCAAGAC,-0.0687
4,CTCTCGCA,-0.0188
5,AACTGAAA,0.422
6,AGACCTTC,-0.0872
7,GCCCATCA,-0.0614
8,CAGAGATG,-0.052
9,CATCTTCA,-0.00204
10,CCTGACTC,-0.0895
11,GCATGCCC,0.105
12,GGGTTGAC,-0.135
13,AAAAGGAG,-0.201
14,AGACGACG,-0.102
15,ATCCAGTA,0.0766
16,AATTTTTG,0.321
17,AATCGTGG,-0.00553
18,CCCTCACG,-0.11
19,TAGGCACA,-0.107
